Values marked as one replicate rest on one cluster of the flow cell; about a third of the high ones do not repeat.
System: ATP
Experiment: switch fluorescence ratio, 500 uM ATP over buffer (Cy3 cluster intensity, sum of 5 cycles each) (fold (ratio)); higher = stronger signal-on switching upon ATP binding; sequences stand for … in TCGTCGGCAGCGTCAGATGTGTATAAGAGACAGTTTTTTTTTTTTTTTTTTTTTTTTT…TC
Conditions: aptamer strand: ATP DNA aptamer (quencher-CACCTGGGGGAGTATTGCGGAGGAAGG + anchor), 100 nM annealed; ATP concentration: 500 uM; one replicate
How it was run: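 For every switch-domain sequence, the fluorescence ratio is the mean of per-cluster values, each being summed target-cycle Cy3 intensity over summed buffer-cycle Cy3 intensity. Clusters outside 100-1000 RFU were excluded. On a modified Illumina MiSeq flow-cell, the Cy3-labelled switching-strand clusters were annealed to 100 nM quencher-labelled ATP aptamer, imaged in selection buffer and then after 15 min with 500 uM ATP at 22 °C. Five such cycles were run, with NaOH stripping and re-annealing between them.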
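Note: ATP exposure 15 min at 22 °C before imaging.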

Sequence	switch fluorescence ratio
AAATTCTGTA	0.983
TACGTGGGTC	1.02
TTGATCGATT	1.02
TGGGGTACCG	1.02
CTTCGTCTTT	1.04
GGGAGCCGTT	1.05
CAAGGATTGC	1.01
GCAGGAGCAG	1.05
CGCAGTTAAT	1.2
GTTAACTCCC	1.33
CCCTTGCCAT	1.02
GCCCGAACAG	1.03
ACGACCATAA	1.3
GGGACATATA	1.04
TGGCACCATG	1.02
TGGGGCGATA	1.02
TGACCTCTAG	1.01
CGACTAATTA	0.955
AATAGTAATA	1.01
GCATCCGTCA	1.07
CTGGACGTCG	0.956
GATCTCCCCA	1.14
AACCTGGTA	1.03

Sequence	switch fluorescence ratio
TTGCTAATAA	1.22
ACGTTCAGAC	1.35
GGAAAAGGAA	0.963
TGGTATTGGC	1.02
TCACAAAAGT	1.02
ATAATCCTTT	0.993
GCTGTGGTGG	1.03
CTATCCGACG	2.17
GAGTGATGGG	0.968
TTCATTCACG	1.05
ATTACGGACG	1.08
TTGGGAGCAA	6.95
TATAGAGTCA	0.97
GGCTGACACG	0.948
GCTCAAGGCA	1.01
TTCTGGATG	1.06
GAATATTCCG	1.03
ATCCATGTC	0.882
ATGGATGTAC	0.973
TCCTAGTACC	1.03
AGAAGCATGA	1.03
CATGGAATAA	0.996
GCCAATTTCC	1.06

Sequence	switch fluorescence ratio
GTTCTATATG	0.96
TCACCTTATG	0.989
AGGTCAATA	0.968
CACCTTCCCA	1.74
GATTGACCTT	1.15
GTTTGAACAT	1.01
CTGATTTGAT	0.962
TGATTTACCT	1.26
GCCTCTATTG	0.879
ACGCCTTTGT	1.02
TGGAAGCATC	1.07
ATCCTATCCG	1
GTTTTATCAT	1.01
CGTGGTTAGG	1
AACGAATCTT	1.03
TGAACCCATG	1.23
GGGCAGGAGT	1
AACTAGTGAG	1.04
CTTTTGGGTC	0.98
TTGGACGTGC	1.03
GAACAACCCT	1.07
GTTAAGTATC	0.974
CATGCGAGCA	0.964

Sequence	switch fluorescence ratio
ACGTAGTGAG	1.02
GGGTCGCAAG	0.966
GATAGCGCCG	1.05
AACTTCGAGG	1.03
AGATTACTAA	1.07
TAGGTGAAA	0.954
GAGTTCACAC	0.946
TTGACAAGAA	1
TACTAATCCC	1.04
TCATCCAGGA	1.03
GCTAATCCT	1.1
AAACCATTTC	1.3
CCTCGAACGG	1.15
CTTGACGGTG	1.01
AGTCTTTCGT	1
GCTCTGCCTT	1.11
TTGCCTGTCA	0.981
AGGGGATTAA	1.22
TCGAATACGT	1.01
ATTAGGACAT	1.02
GCTTACGCAT	1.13
TGTCTTCGGC	0.991
TTTAGCGGGC	1.07

Sequence	switch fluorescence ratio
CTTTCAGGCG	0.982
ATACGAGCAA	3.28
CACGTGGGGT	0.966
CGACCTGTTT	0.997
GGCTTGCGAA	1.02
TGTGTATCTA	0.977
GCCCCTTGTC	1.09
ACAGTTTCG	0.989
TGTATTAAGA	1.02
GAGGAAATTA	1.01
CCTCGTATA	2.87
TGACTTGGTG	0.987
TCTGAGCGTA	0.987
ATTTTTCGCG	0.978
AATGAGAAC	1.03
GACTGGTGAG	0.953
GAATGGGCCG	1.01
CAATATCTG	1.01
TCTGGTCACG	0.964
AAGAATCTA	0.985
ACTGAGTCAG	1.03
AAGGCCGAAG	1.02
GTATTCCGAC	1.16

Sequence	switch fluorescence ratio
CGCCACGAGA	1.02
CTCTAGCGGA	1.11
AGATTGAGAG	0.995
TGTAATACAT	1.02
GCGCTTTCGG	1.02
AGCGTTGTAG	1.03
CAAGGGCCCC	0.967
TCGTACCACT	1.01
AAATCTGTTA	1.02
AGCCTGGCCG	1.02
CAAGGTCTGG	0.998
CTCGTGGGGG	0.976
GCATCTCAAG	1.06
TTTAGGAGG	0.999
GTTTGGGCGT	1.03
GATCCCCGTT	0.998
ACTAGGTTGA	1.01
TGCGGCGTGT	0.987
GCGCGCCTAA	1.05
GTGAATCGTC	1.03
ATCTGTCTT	1
CTTCTGCTCA	1.02
CTTCTGAAAT	1.05

Sequence	switch fluorescence ratio
CGATGCCCAC	1.44
ACGCGGAAG	1.01
TGTGTTTGGA	1.03
AAGGTGGATT	0.979
GAGGCTTCGG	0.957
TTTGAAAAG	1.06
GTCCTCCCTC	1.85
GTATTTTAGT	1.03
GAAGCAGAT	1.17
AGGGCCTGCG	0.959
GATGAGAACT	1.02
TACCTATGCT	1.06
TCCTAGGAT	0.965
TCAACCAAAC	1.17
GAAATTGCGA	1.03
TGTCGAGTTT	0.954
GGGTTAGTGA	0.976
GTGTTTCGAT	1.01
ACCGCTTTGC	1.64
